Laboratory results published in the supplement of paper PMC6828730.
Where a name gives a salt, the structure may show the parent alone. The list shows a part of the results. Most values come without repeats; read them as rough.

Experiments:
[1] = tested on: hiPSC-derived cardiomyocytes; experiment: time to death of most cells in well after compound addition (days); higher = less cardiotoxic; conditions: screen: 1; 10 µM
[2] = tested on: hiPSC-derived cardiomyocytes; experiment: time to death of most cells in well after compound addition (days); higher = less cardiotoxic; extreme values may be limits of the assay; conditions: 10 µM

Row | SMILES | time to death of most cells in well [1] | time to death of most cells in well ([2]; screen: 2) | time to death of most cells in well ([2]; screen: 3) | time to death of most cells in well ([2]; screen: 4)
1 | C#Cc1cccc(Nc2ncnc3cc(OCCOC)c(OCCO)cc23)c1 | > 7 | > 7 | > 7 | > 7
2 | C[C@@]1(C(=O)Nc2ccc(F)nc2)CCCN1c1nc(Nc2cc(C3CC3)n[nH]2)c2cccn2n1 | 5 | 2 | 6 | > 7
3 | NC1(c2ccc(-c3nc4ccn5c(=O)[nH]nc5c4cc3-c3ccccc3)cc2)CCC1 | 1 | 1 | > 7 | 1.5
4 | C=CCc1ccc(O)c(-c2ccc(O)c(CC=C)c2)c1 [Honokiol] | > 7 | > 7 | > 7 | > 7
5 | Cc1cc(Nc2cc(N3CCN(C)CC3)nc(/C=C/c3ccccc3)n2)n[nH]1 | 4 | 4.5 | 4.5 | 6.5
6 | CN1CCN(S(=O)(=O)c2ccc(-c3cnc(N)c(C(=O)Nc4cccnc4)n3)cc2)CC1 | 2 | 1.5 | 3 | > 7
7 | C[C@H](Nc1ncnc2nc[nH]c12)c1cc2cccc(Cl)c2c(=O)n1-c1ccccc1 [Duvelisib (IPI-145, INK1197)] | 2.5 | 2 | 3.5 | > 7
8 | Clc1ccc(C2(c3ccc(-c4cn[nH]c4)cc3)CCNCC2)cc1 | 4 | 3.5 | 2.5 | 4.5
9 | CCn1c(=O)c(-c2ccc(-c3cncs3)cc2Cl)cc2cnc(Nc3ccc(N4CCN(C)CC4)cc3)nc21 | 5.5 | 3.5 | > 7 | > 7
10 | Oc1cc(O)cc(/C=C/c2ccc(O)c(O)c2)c1 [Piceatannol] | > 7 | > 7 | > 7 | > 7
11 | CCOc1cc2ncc(C#N)c(Nc3ccc(F)c(Cl)c3)c2cc1NC(=O)/C=C/CN(C)C [Pelitinib (EKB-569)] | 4.5 | 1.5 | > 7 | > 7
12 | CCC[C@H](NC(=O)/C(C#N)=C/c1cccc(Br)n1)c1ccccc1 [Degrasyn (WP1130)] | 0 | 1 | 2.5 | > 7
13 | O=C1NC(=O)/C(=C/c2cccc(C(F)(F)F)c2)S1 | > 7 | > 7 | > 7 | > 7
14 | CSc1cccc(Nc2ncc3cc(-c4c(Cl)cccc4Cl)c(=O)n(C)c3n2)c1 | 3 | 2.5 | > 7 | > 7
15 | CO[C@H]1C[C@@H]2CC[C@@H](C)[C@@](O)(O2)C(=O)C(=O)N2CCCC[C@H]2C(=O)O[C@H]([C@H](C)C[C@@H]2CC[C@H](n3cnnn3)[C@H](OC)C2)CC(=O)[C@H](C)/C=C(\C)[C@@H](O)[C@@H](OC)C(=O)[C@H](C)C[C@H](C)/C=C/C=C/C=C/1C [Zotarolimus(ABT-578)] | > 7 | > 7 | > 7 | > 7
16 | N#Cc1c(NC(=O)c2cccc3ccccc23)sc2c1CCCC2 [JNK Inhibitor IX] | 3 | 2 | 3.5 | > 7
17 | C1=N/C2=N/c3ccc(OCCN4CCCC4)c(c3)COC/C=C/COCc3cccc(c3)C(=C1)N2 [Pacritinib (SB1518)] | 1.5 | 1 | 4 | 5
18 | Cc1cc2c(F)c(Oc3ncnn4cc(OC[C@@H](C)OC(=O)[C@H](C)N)c(C)c34)ccc2[nH]1 | > 7 | > 7 | > 7 | > 7
19 | C[C@@H](Oc1cc(-n2cnc3ccc(CN4CCN(C)CC4)cc32)sc1C(N)=O)c1ccccc1C(F)(F)F | > 7 | > 7 | > 7 | > 7
20 | C=CC(=O)Nc1cccc(Oc2nc(Nc3ccc(N4CCN(C)CC4)cc3)ncc2Cl)c1 | 4 | 2 | 4.5 | 4

Row | SMILES | time to death of most cells in well [1] | time to death of most cells in well ([2]; screen: 2) | time to death of most cells in well ([2]; screen: 3) | time to death of most cells in well ([2]; screen: 4)
21 | CC(C)n1nc(-c2ccc3oc(N)nc3c2)c2c(N)ncnc21 | 4.5 | 3.5 | > 7 | > 7
22 | COc1cc(Nc2c(C#N)cnc3cc(OCCCN4CCN(C)CC4)c(OC)cc23)c(Cl)cc1Cl [Bosutinib (SKI-606)] | 3 | 3.5 | > 7 | > 7
23 | NC1(Cc2ccc(Cl)cc2)CCN(c2ncnc3[nH]ccc23)CC1 | 3 | 6.5 | > 7 | > 7
24 | CCS(=O)(=O)c1cccc(-c2cc(C(=O)NC3CCN(C)CC3)c(C)c3[nH]c4ncc(C)cc4c23)c1 | 2 | 1 | 2.5 | 5
25 | NC[C@@](O)(c1ccc(Cl)cc1)c1ccc(-c2cn[nH]c2)cc1 | 1 | 1 | 3 | 1
26 | CCCCCCCCCCCCCCCCOP(=O)([O-])OCC[N+](C)(C)C [Miltefosine] | 6 | > 7 | > 7 | > 7
27 | OC(c1cc(-c2ccc(Cl)cc2)nc2ccccc12)C1CCCCN1 (stereo not given) [Vacquinol-1] | 2.5 | 1 | 3 | 1.5
28 | Cn1c(Nc2ccc(C(F)(F)F)cc2)nc2cc(Oc3ccnc(-c4ncc(C(F)(F)F)[nH]4)c3)ccc21 | 6 | 3 | 4.5 | > 7
29 | Cc1ccccc1-n1c(Cn2ncc3c(N)ncnc32)nc2cccc(C)c2c1=O | > 7 | > 7 | > 7 | > 7
30 | CCc1ccc(/C=C2/SC(=S)NC2=O)cc1 | > 7 | 3.5 | > 7 | > 7
31 | Nc1ccc(C(=O)Nc2cccc(-c3nc(N4CCOCC4)c4oc5ncccc5c4n3)c2)cn1 | > 7 | > 7 | > 7 | > 7
32 | N#CCNC(=O)c1ccc(-c2ccnc(Nc3ccc(N4CCOCC4)cc3)n2)cc1 [Momelotinib (CYT387)] | 4 | 2 | 6 | > 7
33 | C[C@@H](N)[C@H]1CC[C@H](C(=O)Nc2ccncc2)CC1 | > 7 | > 7 | > 7 | > 7
34 | FC(F)(F)c1ccc(/C=C/c2nc(COc3ccc(CCCCn4ccnn4)cc3)co2)cc1 [Mubritinib (TAK 165)] | 1 | 0.5 | 0.5 | 4.5
35 | Cc1cc(Nc2cc(CN3CCOCC3)c3nc(C)c(Cc4ccc(Cl)cc4F)n3n2)n[nH]1 | > 7 | > 7 | > 7 | > 7
36 | COc1cc(Nc2ncc3c(n2)-c2ccc(Cl)cc2C(c2c(F)cccc2OC)=NC3)ccc1C(=O)O [Alisertib (MLN8237)] | > 7 | > 7 | > 7 | > 7
37 | CCc1cccc(CC)c1NC(=O)N1Cc2[nH]nc(NC(=O)c3ccc(N4CCN(C)CC4)cc3)c2C1 | > 7 | > 7 | > 7 | > 7
38 | CC(C)(C)c1cc(NC(=O)Nc2ccc(-c3cn4c(n3)sc3cc(OCCN5CCOCC5)ccc34)cc2)no1 [Quizartinib (AC220)] | 3 | > 7 | > 7 | > 7
39 | Cc1ccc(F)c(NC(=O)Nc2ccc(-c3cccc4[nH]nc(N)c34)cc2)c1 [Linifanib (ABT-869)] | > 7 | > 7 | > 7 | > 7
40 | Cn1cc(C2=C(c3ccc(Cl)cc3Cl)C(=O)NC2=O)c2ccccc21 | 3 | 3 | > 7 | > 7

Row | SMILES | time to death of most cells in well [1] | time to death of most cells in well ([2]; screen: 2) | time to death of most cells in well ([2]; screen: 3) | time to death of most cells in well ([2]; screen: 4)
41 | COc1cc2nccc(Oc3ccc(NC(=O)C4(C(=O)Nc5ccc(F)cc5)CC4)cc3)c2cc1OC | 6 | > 7 | > 7 | > 7
42 | Cc1c(Cn2c(C)nc3c(C(=O)O)cc(N4CCOCC4)cc32)cccc1C(F)(F)F | > 7 | > 7 | > 7 | > 7
43 | COc1cc(C(=O)NC2CCN(C)CC2)ccc1Nc1ncc2c(n1)N(C1CCCC1)CC(F)(F)C(=O)N2C | 5.5 | > 7 | > 7 | 5.5
44 | COc1ccc(-c2cc3c(C)nc(N)nc3n([C@H]3CC[C@H](OCCO)CC3)c2=O)cn1 | 1.4 | 2.5 | > 7 | > 7
45 | O=S(=O)(c1cccc2cnccc12)N1CCCNCC1 [Fasudil (HA-1077) HCl] | > 7 | 6 | > 7 | > 7
46 | O=Nc1c(-c2c(O)[nH]c3cc(Br)ccc23)[nH]c2ccccc12 | 6 | 3 | 6.5 | 4
47 | Nc1nc(NCCNc2ncc(-n3ccnc3)c(-c3ccc(Cl)cc3Cl)n2)ccc1[N+](=O)[O-] | > 7 | 4 | > 7 | > 7
48 | CCNc1nc(Nc2cc(F)c(C(=O)N3CCOCC3)cc2OC)ncc1C(F)(F)F | 3.5 | 2.5 | 6.5 | > 7
49 | c1cc(-c2cnn3cc(-c4ccc(OCCN5CCCCC5)cc4)cnc23)ccn1 [Dorsomorphin 2HCl] | 3.5 | > 7 | > 7 | > 7
50 | O=C1NC(=O)C(c2ccccc2[N+](=O)[O-])=C1Nc1ccc(O)c(Cl)c1 | > 7 | > 7 | > 7 | > 7
51 | O=C(NCCCNc1nc(Nc2cccc(NC(=O)N3CCCC3)c2)ncc1I)c1cccs1 | > 7 | > 7 | > 7 | > 7
52 | COc1cc2ncnc(Oc3cccc(NC(=O)Nc4cc(C(C)(C)C(F)(F)F)on4)c3)c2cc1OC | 6 | 6.5 | > 7 | > 7
53 | Cc1c(NC(=O)c2ccc(C(C)(C)C)cc2)cccc1-c1cn(C)c(=O)c(Nc2ccc(C(=O)N3CCOCC3)cc2)n1 | 2 | 2 | 3 | > 7
54 | COc1ccc(S(=O)(=O)N(CCO)c2ccccc2CN(C)C/C=C/c2ccc(Cl)cc2)cc1 [KN-93 Phosphate] | 3.5 | 3 | 3 | 6
55 | N#CC(=Cc1ccc(O)c(O)c1)C(=O)NCc1ccccc1 [AG-490 (Tyrphostin B42)] | > 7 | > 7 | > 7 | > 7
56 | Cc1cc(F)c(Nc2ncnc3cc(OCc4ccccc4)ccc23)cc1O | 2.5 | 4 | > 7 | > 7
57 | Cc1nc(Nc2n[nH]c3c2CN(C(=O)N[C@H](CN(C)C)c2ccccc2)C3(C)C)c2sccc2n1 | 2 | 1 | 5.5 | 1
58 | Cn1cc(-c2ccc3nnc(C(F)(F)c4ccc5ncccc5c4)n3n2)cn1 | > 7 | 1.5 | > 7 | > 7
59 | Cc1ccc(S(=O)(=O)C=CC#N)cc1 | 1 | 3 | 3 | 1
60 | CC(C)(C)c1cc(/C=C(\C#N)C(N)=S)cc(C(C)(C)C)c1O [Tyrphostin AG 879] | > 7 | 5.5 | 0 | > 7
